Experimental data published in the supplement of paper PMC4604168 (melanoma cell lines).
The list shows a part of the results. Many values rest on one well or one pass, so single values are uncertain.

system: LB2518-MEL; assay: cell count relative to DMSO control; melanoma cells; higher = more viable cells; settings: library dose: standard library concentration; 72 h
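Further: cells treated in 1,536-well plates, then fixed and DAPI-stained, with nuclei counted from automated high-throughput microscope images.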

Question: With `Nc1cccc2c1CN(C1CCC(=O)NC1=O)C2=O` (configuration not stated) [lenalidomide] + CC(C)(C)c1cnc(CSc2cnc(NC(=O)C3CCNCC3)s2)o1 [SNS-032] (first compound 5 µM, partner dose 0.05 µM) as the compound, how does the cell count read?
Answer: 74.8%

Question: `O=C(CCCCCCC(=O)Nc1ccccc1)NO` [vorinostat] + CC(C)(C)c1cnc(CSc2cnc(NC(=O)C3CCNCC3)s2)o1 [SNS-032] (first compound 0.4 µM, partner dose 0.05 µM) was tested. Which cell count did it give?
Answer: 75.6%

Question: With `Clc1ccc(Nc2nnc(Cc3ccncc3)c3ccccc23)cc1` [vatalanib] + O=C(Nc1ccccc1)c1cc([N+](=O)[O-])ccc1Cl [GW9662] (first compound 10 µM, partner dose 10 µM) as the compound, how does the cell count read?
Answer: 58.9%

Question: With `COCC[n+]1c2c(n(Cc3cnccn3)c1C)C(=O)c1ccccc1C2=O` + COc1cc(N2CCC(N3CCN(C)CC3)CC2)ccc1Nc1ncc(Cl)c(Nc2ccccc2S(=O)(=O)C(C)C)n1 [NVP-TAE684] (first compound 0.002 µM, partner dose 0.4 µM) as the compound, how does the cell count read?
Answer: 17.1%

Question: How did the cell count turn out when `O=C(CCCCCCC(=O)Nc1ccccc1)NO` [vorinostat] + COc1ccc(-c2ccc3c(N4CCOCC4)nc(N4C[C@@H](C)O[C@@H](C)C4)nc3n2)cc1CO [KU0063794] (first compound 0.4 µM, partner dose 0.1 µM) was run?
Answer: 69.7%

Question: Which cell count does the source give for `Cn1c(Nc2ccc(C(F)(F)F)cc2)nc2cc(Oc3ccnc(-c4ncc(C(F)(F)F)[nH]4)c3)ccc21` + CN(C)S(=O)(=O)c1ccc2c(c1)/C(=C/c1cc3c([nH]1)CCCC3)C(=O)N2 [SU6656] (first compound 0.4 µM, partner dose 2 µM) here?
Answer: 30.3%

Question: With `Clc1ccc(Nc2nnc(Cc3ccncc3)c3ccccc23)cc1` [vatalanib] + OCCn1cc(-c2cnc3nnn(Cc4ccc5ncccc5c4)c3n2)cn1 [PF04217903] (first compound 10 µM, partner dose 5 µM) as the compound, how does the cell count read?
Answer: 87.8%

Question: Which cell count does the source give for `Nc1cccc2c1CN(C1CCC(=O)NC1=O)C2=O` (configuration not stated) [lenalidomide] + COc1ccc2c(c1)CCC1C2CCC2(C)C(NCCCCCCN3C(=O)C=CC3=O)CCC12 [U73122] (first compound 5 µM, partner dose 2 µM) here?
Answer: 103%

Question: For `Cn1c(Nc2ccc(C(F)(F)F)cc2)nc2cc(Oc3ccnc(-c4ncc(C(F)(F)F)[nH]4)c3)ccc21` + COc1cc(N2CCC(N3CCN(C)CC3)CC2)ccc1Nc1ncc(Cl)c(Nc2ccccc2S(=O)(=O)C(C)C)n1 [NVP-TAE684] (first compound 0.4 µM, partner dose 0.4 µM), which cell count is on record?
Answer: 26.2%

Question: How did the cell count turn out when `C#Cc1cccc(Nc2ncnc3cc(OCCOC)c(OCCOC)cc23)c1` [erlotinib] + COc1cc2ncnc(Nc3ccc(Oc4ccccc4)cc3)c2cc1OC [SrcI1] (first compound 4 µM, partner dose 10 µM) was run?
Answer: 70.6%

Question: `C#Cc1cccc(Nc2ncnc3cc(OCCOC)c(OCCOC)cc23)c1` [erlotinib] + Cc1cc([N+](=O)[O-])ccc1NS(=O)(=O)c1cc(Cl)ccc1Cl [FH535] (first compound 4 µM, partner dose 5 µM) was tested. Which cell count did it give?
Answer: 77%

Question: Which cell count does the source give for `OCc1c[nH]c2ccccc12` [Indole-3-carbinol] + C#Cc1cccc(Nc2ncnc3cc(OCCOC)c(OCCOC)cc23)c1 [erlotinib] (first compound 4 µM, partner dose 4 µM) here?
Answer: 59.9%

Question: Which cell count does the source give for `Clc1ccc(Nc2nnc(Cc3ccncc3)c3ccccc23)cc1` [vatalanib] + O=C(O)c1ccc(-c2c[nH]c3ncc(-c4ccccc4)cc23)cc1C1CCCC1 [GSK650394] (first compound 10 µM, partner dose 0.8 µM) here?
Answer: 94.3%

Question: How did the cell count turn out when `Cn1c(Nc2ccc(C(F)(F)F)cc2)nc2cc(Oc3ccnc(-c4ncc(C(F)(F)F)[nH]4)c3)ccc21` + CO[C@@H]1[C@H](N(C)C(=O)c2ccccc2)C[C@H]2O[C@]1(C)n1c3ccccc3c3c4c(c5c6ccccc6n2c5c31)C(=O)NC4 [Midostaurin] (first compound 0.4 µM, partner dose 0.4 µM) was run?
Answer: 24.2%

Question: `Clc1ccc(Nc2nnc(Cc3ccncc3)c3ccccc23)cc1` [vatalanib] + COCC[n+]1c2c(n(Cc3cnccn3)c1C)C(=O)c1ccccc1C2=O [YM155] (first compound 10 µM, partner dose 0.002 µM) was tested. Which cell count did it give?
Answer: 81.8%

Question: Which cell count does the source give for `Cn1c(Nc2ccc(C(F)(F)F)cc2)nc2cc(Oc3ccnc(-c4ncc(C(F)(F)F)[nH]4)c3)ccc21` + O=C(O)C(=O)Nc1sc2c(c1C(=O)O)CCNC2 [TCS401] (first compound 0.4 µM, partner dose 8.33333 µM) here?
Answer: 34.6%

Question: Which cell count does the source give for `O=C(CCCCCCC(=O)Nc1ccccc1)NO` [vorinostat] + COc1cc(Nc2ncc(F)c(Nc3ccc4c(n3)NC(=O)C(C)(C)O4)n2)cc(OC)c1OC [Tamatinib] (first compound 0.4 µM, partner dose 2 µM) here?
Answer: 79.1%

Question: For `O=C(CCCCCCC(=O)Nc1ccccc1)NO` [vorinostat] + N#Cc1c(O)c2c(-c3ccc(-c4ccccc4O)cc3)csc2[nH]c1=O [A769662] (first compound 0.4 µM, partner dose 10 µM), which cell count is on record?
Answer: 52.5%

Question: For `Nc1cccc2c1CN(C1CCC(=O)NC1=O)C2=O` (configuration not stated) [lenalidomide] + Cn1cc(/C=C2\C(=O)Nc3cccnc32)c2ccccc21 [GW441756] (first compound 5 µM, partner dose 2 µM), which cell count is on record?
Answer: 102%

Question: Which cell count does the source give for `Clc1ccc(Nc2nnc(Cc3ccncc3)c3ccccc23)cc1` [vatalanib] + C=CCn1c(=O)c2cnc(Nc3ccc(N4CCN(C)CC4)cc3)nc2n1-c1cccc(C(C)(C)O)n1 [MK1775] (first compound 10 µM, partner dose 0.1 µM) here?
Answer: 50%

Question: `COCC[n+]1c2c(n(Cc3cnccn3)c1C)C(=O)c1ccccc1C2=O` + O=c1cc(-c2cccc3c2Sc2ccccc2S3)oc(N2CCOCC2)c1 [KU55933] (first compound 0.002 µM, partner dose 5 µM) was tested. Which cell count did it give?
Answer: 7.92%

Question: For `Cn1c(Nc2ccc(C(F)(F)F)cc2)nc2cc(Oc3ccnc(-c4ncc(C(F)(F)F)[nH]4)c3)ccc21` + O=C(CCCCCCC(=O)Nc1ccccc1)NO [vorinostat] (first compound 0.4 µM, partner dose 0.4 µM), which cell count is on record?
Answer: 34.1%

Question: For `COCC[n+]1c2c(n(Cc3cnccn3)c1C)C(=O)c1ccccc1C2=O` + COc1cc2ncnc(Nc3ccc(Oc4ccccc4)cc3)c2cc1OC [SrcI1] (first compound 0.002 µM, partner dose 10 µM), which cell count is on record?
Answer: 12.8%

Question: Which cell count does the source give for `COCC[n+]1c2c(n(Cc3cnccn3)c1C)C(=O)c1ccccc1C2=O` + Cc1ccc(NC(=O)c2cccc(N(C)C)c2)cc1NC(=O)c1ccc(O)cc1 [ZM336372] (first compound 0.002 µM, partner dose 10 µM) here?
Answer: 30.9%

Question: How did the cell count turn out when `COCC[n+]1c2c(n(Cc3cnccn3)c1C)C(=O)c1ccccc1C2=O` + CN(NC(=O)CC(=O)NN(C)C(=S)c1ccccc1)C(=S)c1ccccc1 [STA4783] (first compound 0.002 µM, partner dose 0.03 µM) was run?
Answer: 9.04%

Question: With `C#Cc1cccc(Nc2ncnc3cc(OCCOC)c(OCCOC)cc23)c1` [erlotinib] + Nc1cccc2c1CN(C1CCC(=O)NC1=O)C2=O [lenalidomide] (first compound 4 µM, partner dose 5 µM) as the compound, how does the cell count read?
Answer: 83.1%

Question: Which cell count does the source give for `Nc1cccc2c1CN(C1CCC(=O)NC1=O)C2=O` (configuration not stated) [lenalidomide] + COC(=O)c1sccc1S(=O)(=O)Nc1ccc(Nc2ccccc2)cc1OC [GSK0660] (first compound 5 µM, partner dose 5 µM) here?
Answer: 116%

Question: How did the cell count turn out when `Nc1cccc2c1CN(C1CCC(=O)NC1=O)C2=O` (configuration not stated) [lenalidomide] + NC(=O)Nc1cc(-c2cccc(F)c2)sc1C(=O)N[C@H]1CCCNC1 [AZD7762] (first compound 5 µM, partner dose 0.1 µM) was run?
Answer: 76.7%

Question: Which cell count does the source give for `COCC[n+]1c2c(n(Cc3cnccn3)c1C)C(=O)c1ccccc1C2=O` + COc1ccc2c(c1)CCC1C2CCC2(C)C(NCCCCCCN3C(=O)C=CC3=O)CCC12 [U73122] (first compound 0.002 µM, partner dose 2 µM) here?
Answer: 154%

Question: For `C#Cc1cccc(Nc2ncnc3cc(OCCOC)c(OCCOC)cc23)c1` [erlotinib] + COCC[n+]1c2c(n(Cc3cnccn3)c1C)C(=O)c1ccccc1C2=O [YM155] (first compound 4 µM, partner dose 0.002 µM), which cell count is on record?
Answer: 8.74%

Question: For `Clc1ccc(Nc2nnc(Cc3ccncc3)c3ccccc23)cc1` [vatalanib] + CCc1ccc(CCOc2ccc(CC3SC(=O)NC3=O)cc2)nc1 [pioglitazone] (first compound 10 µM, partner dose 10 µM), which cell count is on record?
Answer: 99.6%

Question: Which cell count does the source give for `C#Cc1cccc(Nc2ncnc3cc(OCCOC)c(OCCOC)cc23)c1` [erlotinib] + CO[C@@H]1[C@H](N(C)C(=O)c2ccccc2)C[C@H]2O[C@]1(C)n1c3ccccc3c3c4c(c5c6ccccc6n2c5c31)C(=O)NC4 [Midostaurin] (first compound 4 µM, partner dose 0.4 µM) here?
Answer: 53.6%
